According to patent US5925730A, “GnRH antagonists” (Ferring BV, priority 1997, dated 1999):
Part of at least one peptide drawing is inferred or uncertain, most often the ends. Some compounds share one wording; it may come from a single statement. Starred links: 1 amine or outer side, 2 acyl side, 3 side chain; linkers in the order of their positions; H or OH if unused. Non-standard residues stand in square brackets, D forms with d. Residues, ends and D or L forms follow the SMILES beside them. *: point of attachment. Phe(4-NH(5-NH2triazol-3-yl)) = Nc1nc(Nc2ccc(C[C@H](N)C(=O)O)cc2)n[nH]1; dPhe(4-CH2NHCONH2) = NC(=O)NCc1ccc(C[C@@H](N)C(=O)O)cc1; X2 = Nc1n[nH]c(Nc2ccc(C[C@@H](N[*:1])C(=O)[*:2])cc2)n1; dPhe(4-NHCONH2) = NC(=O)Nc1ccc(C[C@@H](N)C(=O)O)cc1; Dihydroorotyl(S) = O=C1C[C@@H](C(=O)*)NC(=O)N1; dPhe(4-CH2NH2) = NCc1ccc(C[C@@H](N)C(=O)O)cc1; dPhe(4-NH2) = Nc1ccc(C[C@@H](N)C(=O)O)cc1; dPhe(4-Cl) = N[C@H](Cc1ccc(Cl)cc1)C(=O)O; Phe(4-NH2) = Nc1ccc(C[C@H](N)C(=O)O)cc1; dPhe(4-F) = N[C@H](Cc1ccc(F)cc1)C(=O)O; d2Nal = N[C@H](Cc1ccc2ccccc2c1)C(=O)O; Lys(iPr) = CC(C)NCCCC[C@H](N)C(=O)O; d3Pal = N[C@H](Cc1cccnc1)C(=O)O; Nicotinoyl = O=C(c1cccnc1)*; X1 = O=C1NC[C@@H](C(=O)*)N1

Columns and labels:
[1] = hydrophilicity by RP-HPLC retention time (TEAP pH 7.0 / CH3CN gradient); format: physicochemical; conditions: for hydrophilicity compared with Acyline: RP-HPLC elution
[2] = tested on: secretion of LH; experiment: in vivo rat LH suppression test (circulating LH levels in castrated male rats after sc injection); parameters: species or system castrated male Sprague-Dawley rats; conditions: for LH levels after 96 hours as percentage of the LH levels of rats injected with Acyline: comparator Acyline 50 micrograms; for effectiveness in suppression of LH compared with Acyline, day 1 through day 3: days 1-3; for effectiveness in suppression of LH compared with Acyline, day 1 through day 4 (96 hours): days 1-4; for biopotency in the suppression of secretion of LH compared with the main peptide of the same example: D-4Amf in position 6 instead of D-4Aph
Method: The peptide is assayed in vivo to determine its effectiveness to suppress the secretion of LH in rats. Measurement of circulating LH levels in castrated male Sprague-Dawley rats treated subcutaneously with the peptide is carried out as reported in C. Rivier et al. Biol. Reproduc., 1983, 29, 374-378. The peptides are first dissolved at a concentration of 1.0 or 10 mg/ml in bacteriostatic water and then further diluted in 0.04 M phosphate buffer containing 0.1% BSA. Subsequent dilutions are made in phosphate buffer. The peptides are injected sc into 5 rats, and blood samples (300 μl) are collected under metotane anesthesia. Sera (50 μl) are tested for LH levels in duplicate using reagents provided by the National Pituitary and Hormone Distribution Program of the NIDDK.

CC(=O)N[C@H](Cc1ccc2ccccc2c1)C(=O)N[C@H](Cc1ccc(Cl)cc1)C(=O)N[C@H](Cc1cccnc1)C(=O)N[C@@H](CO)C(=O)N[C@@H](Cc1ccc(Nc2nc(N)n[nH]2)cc1)C(=O)N[C@H](Cc1ccc(Nc2nc(N)n[nH]2)cc1)C(=O)N[C@@H](CC(C)C)C(=O)N[C@@H](CCCCNC(C)C)C(=O)N1CCC[C@H]1C(=O)N[C@H](C)C(N)=O [Azaline B, [Ac-D-2Nal^1, D-4ClPhe^2, D-3Pal^3, 4Aph(atz)^5, D-4Aph(atz)^6, ILys^8, D-Ala^10]-GnRH, reference compound] (Ac-[d2Nal][dPhe(4-Cl)][d3Pal]S[Phe(4-NH(5-NH2triazol-3-yl))][X2]L[Lys(iPr)]P[dA]-NH2)
hydrophilicity compared with Acyline [1]: more hydrophilic than Acyline

CC(=O)N[C@H](Cc1ccc2ccccc2c1)C(=O)N[C@H](Cc1ccc(Cl)cc1)C(=O)N[C@H](Cc1cccnc1)C(=O)N[C@@H](CO)C(=O)N[C@@H](Cc1ccc(NC(=O)[C@@H]2CC(=O)NC(=O)N2)cc1)C(=O)N[C@H](Cc1ccc(NC(N)=O)cc1)C(=O)N[C@@H](CC(C)C)C(=O)N[C@@H](CCCCNC(C)C)C(=O)N1CCC[C@H]1C(=O)N[C@H](C)C(N)=O [Example 1, Ac-D-2Nal-(4Cl)D-Phe-D-3Pal-Ser-4Aph(hydroorotyl)-D-4Aph(carbamoyl)-Leu-Lys(isopropyl)-Pro-D-Ala-NH2] (Ac-[d2Nal][dPhe(4-Cl)][d3Pal]S[Phe(4-NH2)](Dihydroorotyl(S))[dPhe(4-NHCONH2)]L[Lys(iPr)]P[dA]-NH2)
hydrophilicity compared with Acyline [1]: more hydrophilic than Acyline
LH secretion relative to control levels throughout the 96-hour period following injection ([2]; 50 μg of peptide per rat, sc, % of control levels): less than 50%
duration of bioactivity for the suppression of LH (rating in words) ([2]; 50 micrograms sc): very long-acting
LH levels after 96 hours as percentage of the LH levels of rats injected with Acyline ([2]; 50 micrograms sc, 96 hours): ~30%

CC(=O)N[C@H](Cc1ccc2ccccc2c1)C(=O)N[C@H](Cc1ccc(Cl)cc1)C(=O)N[C@H](Cc1cccnc1)C(=O)N[C@@H](CO)C(=O)N[C@@H](Cc1ccc(NC(=O)[C@@H]2CC(=O)NC(=O)N2)cc1)C(=O)N[C@H](Cc1ccc(CNC(N)=O)cc1)C(=O)N[C@@H](CC(C)C)C(=O)N[C@@H](CCCCNC(C)C)C(=O)N1CCC[C@H]1C(=O)N[C@H](C)C(N)=O [Example 1A, Ac-β-D-2Nal-D-4Cpa-D-3Pal-Ser-4Aph(hydroorotyl)-D-4Amf(carbamoyl)-Leu-Lys(isopropyl)-Pro-D-Ala-NH2] (Ac-[d2Nal][dPhe(4-Cl)][d3Pal]S[Phe(4-NH2)](Dihydroorotyl(S))[dPhe(4-CH2NHCONH2)]L[Lys(iPr)]P[dA]-NH2)
hydrophilicity compared with Acyline [1]: more hydrophilic than Acyline
duration of bioactivity for the suppression of LH (rating in words) ([2]; 50 micrograms sc): very long-acting
LH levels after 96 hours as percentage of the LH levels of rats injected with Acyline ([2]; 50 micrograms sc, 96 hours): about 25%
effectiveness in suppression of LH compared with Acyline, day 1 through day 3 ([2]; 50 micrograms sc): as effective as Acyline

CC(=O)Nc1ccc(C[C@@H](NC(=O)[C@H](Cc2ccc(NC(=O)[C@@H]3CC(=O)NC(=O)N3)cc2)NC(=O)[C@H](CO)NC(=O)[C@@H](Cc2cccnc2)NC(=O)[C@@H](Cc2ccc(F)cc2)NC(=O)[C@@H](Cc2ccc3ccccc3c2)NC(C)=O)C(=O)N[C@@H](CC(C)C)C(=O)N[C@@H](CCCCNC(C)C)C(=O)N2CCC[C@H]2C(=O)N[C@H](C)C(N)=O)cc1 [Example 1E, Ac-β-D-2Nal-D-4Fpa-D-3Pal-Ser-4Aph(hydroorotyl)-D-4Aph(acetyl)-Leu-Lys(isopropyl)-Pro-D-Ala-NH2] (Ac-[d2Nal][dPhe(4-F)][d3Pal]S[Phe(4-NH2)](Dihydroorotyl(S))[dPhe(4-NH2)](Ac)L[Lys(iPr)]P[dA]-NH2)
duration of bioactivity for the suppression of LH (rating in words) ([2]; 50 micrograms sc): long-acting
effectiveness in suppression of LH compared with Acyline, day 1 through day 4 (96 hours) ([2]; 50 micrograms sc): about as effective as Acyline

CC(=O)N[C@H](Cc1ccc2ccccc2c1)C(=O)N[C@H](Cc1ccc(Cl)cc1)C(=O)N[C@H](Cc1cccnc1)C(=O)N[C@@H](CO)C(=O)N[C@@H](Cc1ccc(NC(=O)[C@@H]2CC(=O)NC(=O)N2)cc1)C(=O)N[C@H](CCCCNC(=O)c1cccnc1)C(=O)N[C@@H](CC(C)C)C(=O)N[C@@H](CCCCNC(C)C)C(=O)N1CCC[C@H]1C(=O)N[C@H](C)C(N)=O [Example 2A, Ac-D-2Nal-D-4Cpa-D-3Pal-Ser-4Aph(hydroorotyl)-D-Lys(Nic)-Leu-ILys-Pro-D-Ala-NH2] (Ac-[d2Nal][dPhe(4-Cl)][d3Pal]S[Phe(4-NH2)](Dihydroorotyl(S))[dK](Nicotinoyl)L[Lys(iPr)]P[dA]-NH2)
hydrophilicity compared with Cetrorelix [1]: more hydrophilic than Cetrorelix
duration of bioactivity for suppression of LH secretion compared with Cetrorelix ([2]; tested as in Example 1, dose not given): as long duration of bioactivity as Cetrorelix

CC(=O)Nc1ccc(C[C@@H](NC(=O)[C@H](Cc2ccc(NC(=O)[C@@H]3CNC(=O)N3)cc2)NC(=O)[C@H](CO)NC(=O)[C@@H](Cc2cccnc2)NC(=O)[C@@H](Cc2ccc(Cl)cc2)NC(=O)[C@@H](Cc2ccc3ccccc3c2)NC(C)=O)C(=O)N[C@@H](CC(C)C)C(=O)N[C@@H](CCCCNC(C)C)C(=O)N2CCC[C@H]2C(=O)N[C@H](C)C(N)=O)cc1 [Example 3A] (Ac-[d2Nal][dPhe(4-Cl)][d3Pal]S[Phe(4-NH2)](X1)[dPhe(4-NH2)](Ac)L[Lys(iPr)]P[dA]-NH2)
duration of bioactivity for the suppression of LH (rating in words) ([2]; 50 micrograms sc): long duration
effectiveness in suppression of LH compared with Acyline, day 1 through day 4 (96 hours) ([2]; 50 micrograms sc): about the same as Acyline

CC(=O)NCc1ccc(C[C@@H](NC(=O)[C@H](Cc2ccc(NC(=O)[C@@H]3CC(=O)NC(=O)N3)cc2)NC(=O)[C@H](CO)NC(=O)[C@@H](Cc2cccnc2)NC(=O)[C@@H](Cc2ccc(Cl)cc2)NC(=O)[C@@H](Cc2ccc3ccccc3c2)NC(C)=O)C(=O)N[C@@H](CC(C)C)C(=O)N[C@@H](CCCCNC(C)C)C(=O)N2CCC[C@H]2C(=O)N[C@H](C)C(N)=O)cc1 [Example 4A, Ac-D-2Nal-D-4Cpa-D-3Pal-Ser-4Aph(hydroorotyl)-D-4Amf(Acm)-Leu-ILys-Pro-D-Ala-NH2] (Ac-[d2Nal][dPhe(4-Cl)][d3Pal]S[Phe(4-NH2)](Dihydroorotyl(S))[dPhe(4-CH2NH2)](Ac)L[Lys(iPr)]P[dA]-NH2)
duration of bioactivity for the suppression of LH (rating in words) ([2]; 50 micrograms sc): long-acting
suppression of LH compared with Acyline at 96 hours / 4 days (after day 3) ([2]; 50 micrograms sc, 96 hours): slightly superior to Acyline
effectiveness in suppression of LH compared with Acyline, day 1 through day 3 ([2]; 50 micrograms sc): equal to Acyline
biopotency in the suppression of secretion of LH compared with the main peptide of the same example [2]: generally as biopotent

CC(=O)N[C@H](Cc1ccc2ccccc2c1)C(=O)N[C@H](Cc1ccc(Cl)cc1)C(=O)N[C@H](Cc1cccnc1)C(=O)N[C@@H](CO)C(=O)N[C@@H](Cc1ccc(NC(=O)[C@@H]2CC(=O)NC(=O)N2)cc1)C(=O)N[C@H](Cc1ccc(CNC(=O)[C@@H]2CC(=O)NC(=O)N2)cc1)C(=O)N[C@@H](CC(C)C)C(=O)N[C@@H](CCCCNC(C)C)C(=O)N1CCC[C@H]1C(=O)N[C@H](C)C(N)=O [[4Aph(Hor)^5,D-Amf(Hor)^6]-Antide] (Ac-[d2Nal][dPhe(4-Cl)][d3Pal]S[Phe(4-NH2)](Dihydroorotyl(S))[dPhe(4-CH2NH2)](Dihydroorotyl(S))L[Lys(iPr)]P[dA]-NH2)
biopotency in the suppression of secretion of LH compared with the main peptide of the same example [2]: generally as biopotent
